# Results as given in PubChem BioAssay (Tox21).
# “And” between values parts separate entries of the source, which are not always exact repeats. Equal values may be shown once. Inconclusive results, whose numbers are uncertain, are shown with a selection of clear calls. Potencies of inconclusive entries are doubtful fits and often do not repeat. A structure can be active in one record and inactive in another. The source made the active and inactive calls. The call rests on the fitted dose curve; in most records, active means well fitted curve in the direction sought with a large enough effect in the repeat runs; inconclusive means weak or mixed curves; inactive means no such curve, though single readings can be large; an effect the other way counts as inactive or inconclusive.
# Test system: not listed separately
# Experiment: qHTS assay to identify small molecule antagonists of the estrogen receptor alpha (ER-alpha) signaling pathway using the BG1 cell line - cell viability counter screen (AID 743081);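 further: compound given together with 17beta-estradiol as the ER stimulus; nearly all actives have a fitted effect of over 45% in size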
# Details: BG1Luc4E2 viability, CellTiter-Fluor, 22 h; activity change, negative = cytotoxicity: at 70.3 µM (top of the series)
# On the % scale 0 is the no-effect control and ±100 the full control effect; potency means the concentration at half of the fitted maximal effect; tags describe the fitted curve by direction and shape.
Compound,Potency,"activity change, negative = cytotoxicity"
COc1ccc(N)cc1N,"inconclusive: 0.158 µM [cytotoxic, partial curve, poor fit]",–
O=C(O)C(Cl)Cl,"inconclusive: 18.8 µM [rising, partial curve, poor fit]",–
ClC(Cl)(Cl)C(Cl)(Cl)Cl,–,inactive: 6.42% [at 95 µM]
OCCCBr,"inconclusive: 77 µM [rising, partial curve, poor fit]",–
Nc1ccc(Cl)cc1,"inconclusive: 77 µM [cytotoxic, partial curve, poor fit]",–
CCOc1cc(C=O)ccc1O,"inconclusive: 15 µM [cytotoxic, partial curve, poor fit]",–
CCOP(=O)(O)OCC (tested in a mixture with another compound),active: 54 µM,–
CC[n+]1ccccc1,inactive and active: 30.4 µM,–

# Target: Aromatase (Homo sapiens) (UniProt P11511)
# Experiment: qHTS assay to identify aromatase inhibitors (AID 743083); further: nearly all actives have a fitted effect of over 55% in size
# Details: MCF-7 aro ERE, testosterone-driven ERE luciferase, 24 h; activity, negative = inhibition: at 70.3 µM (top of the series)
# Chain of UniProt P11511 (P11511 whole entry, looked up): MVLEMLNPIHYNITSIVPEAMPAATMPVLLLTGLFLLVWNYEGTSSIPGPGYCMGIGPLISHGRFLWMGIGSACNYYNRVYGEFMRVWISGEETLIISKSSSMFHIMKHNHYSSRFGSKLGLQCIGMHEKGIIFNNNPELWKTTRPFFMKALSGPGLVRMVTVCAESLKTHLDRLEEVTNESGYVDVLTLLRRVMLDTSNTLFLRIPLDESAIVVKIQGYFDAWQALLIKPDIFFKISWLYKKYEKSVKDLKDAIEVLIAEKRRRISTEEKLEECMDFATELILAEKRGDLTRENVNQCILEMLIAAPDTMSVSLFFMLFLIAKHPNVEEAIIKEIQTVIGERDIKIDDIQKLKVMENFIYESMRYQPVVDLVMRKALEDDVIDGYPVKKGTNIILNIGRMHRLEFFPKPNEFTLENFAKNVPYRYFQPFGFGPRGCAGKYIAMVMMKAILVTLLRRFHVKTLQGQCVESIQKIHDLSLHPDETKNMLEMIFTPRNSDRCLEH
row,Compound,Potency
1,CC(=O)C=C(C)C,inactive
2,CN(C)c1ccc(N(C)C)cc1,"inconclusive: 77.2 µM [inhibitor, single point]"
3,O=S(=O)(c1ccc(Cl)cc1)c1ccc(Cl)cc1,"inconclusive: 61.9 µM [inhibitor, partial curve]"
4,Clc1ccc(CO/N=C(\Cn2ccnc2)c2ccc(Cl)cc2Cl)c(Cl)c1,active: 2.66 µM

# Test system: not listed separately
# Experiment: qHTS assay to identify aromatase inhibitors - cell viability counter screen (AID 743084);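 further: cells stimulated with testosterone during compound exposure; nearly all actives have a fitted effect of over 55% in size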
# Details: MCF-7 aro ERE viability, CellTiter-Fluor, 24 h; activity change, negative = cytotoxicity: at 70.3 µM (top of the series) unless noted
Compound,Potency,"activity change, negative = cytotoxicity"
COc1ccc(N)cc1N,"inconclusive: 37 µM [cytotoxic, single point]",–
Clc1cc(C(Cl)(Cl)Cl)cnc1Cl,"inconclusive: 38.6 µM [cytotoxic, partial curve]",–
CC(Cc1ccccc1)NCCn1cnc2c1c(=O)n(C)c(=O)n2C (stereo not given),"inconclusive: 33.9 µM [cytotoxic, partial curve, poor fit]",–
O=S(=O)(c1ccc(Cl)cc1)c1ccc(Cl)cc1,"inconclusive: 77.9 µM [cytotoxic, partial curve, poor fit]",–
Clc1ccc(CO/N=C(\Cn2ccnc2)c2ccc(Cl)cc2Cl)c(Cl)c1,–,inactive: -0.948%
COP(N)(=O)SC (stereo not given),inactive,–
CC[n+]1ccccc1,active: 54 µM,–
CCOCN(C(=O)CCl)c1c(C)cccc1CC,"inconclusive: 64.8 µM [cytotoxic, single point] and inconclusive: 61.1 µM [cytotoxic]",–
